Data taken from PubChem BioAssay AID360 (National Center for Advancing Translational Sciences (NCATS), 2006).
The whole screen tested about 48,000 compounds, of which about 550 (1.1%) were called active. About 4% were inconclusive and are not listed. No stated cut-off is given here; in the data, active means potency below about 15 µM; inconclusive means mostly about 16 µM to 33 µM; inactive means weaker than that. Some of the results follow.

What follows are compounds tested against Lysosomal acid glucosylceramidase (Homo sapiens) (UniProt P04062) (assay: Glucocerebrosidase). Details: purified enzyme, resorufin glucoside fluorescence (screen aimed at inhibitors), 20 min.
UniProt P04062, sequence (P04062 whole entry, looked up): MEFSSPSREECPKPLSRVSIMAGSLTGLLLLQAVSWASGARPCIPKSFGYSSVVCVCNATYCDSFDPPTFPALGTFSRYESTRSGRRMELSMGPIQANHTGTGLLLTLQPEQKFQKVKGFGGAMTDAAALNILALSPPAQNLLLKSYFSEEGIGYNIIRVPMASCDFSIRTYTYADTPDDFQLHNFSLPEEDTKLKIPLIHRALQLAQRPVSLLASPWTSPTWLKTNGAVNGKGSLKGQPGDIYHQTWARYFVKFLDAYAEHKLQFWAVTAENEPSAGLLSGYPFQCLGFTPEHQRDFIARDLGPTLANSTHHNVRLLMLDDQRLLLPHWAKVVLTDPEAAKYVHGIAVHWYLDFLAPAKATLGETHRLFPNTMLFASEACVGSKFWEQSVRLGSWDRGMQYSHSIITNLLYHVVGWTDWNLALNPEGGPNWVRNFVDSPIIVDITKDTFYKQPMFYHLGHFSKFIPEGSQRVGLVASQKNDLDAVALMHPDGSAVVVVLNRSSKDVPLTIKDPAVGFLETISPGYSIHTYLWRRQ
Procedure, shortened: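 Normal human glucocerebrosidase (0.2 nM final) was assayed with resorufin β-D-glucopyranoside (30 uM final) in 50mM citric acid/KH2PO4, 10mM sodium taurocholate, 0.01% tween-20, pH 5.9. Compounds were titrated; fluorescence (Ex 548, Em 600) read after 20 min at RT.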
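Further: the screen sought inhibitors.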
Potency means the concentration at half of the fitted maximal effect.

Potency, inactive:
C=CCn1c(COc2ccccc2)nnc1SCC(=O)Nc1ccc2c(c1)OCCO2 > 76.9 µM, Cc1nc2ccc(C(=O)O)cc2c2c1CC(C)S2 (centres undefined) > 76.9 µM, CCOC(=O)c1ccccc1NC(=O)c1ccccc1NS(C)(=O)=O > 76.9 µM, Cc1ccc2cccc(S(=O)(=O)NC3CCS(=O)(=O)C3)c2n1 (centres undefined) > 76.9 µM, CCOC(=O)NC(Nc1nc2ccccc2s1)(C(=O)OCC)C(F)(F)F (centres undefined) > 76.9 µM, CCOC(=O)c1sc(NC(=O)CSc2nnnn2-c2ccc(C)cc2C)nc1C > 76.9 µM, CC(=O)N1CCc2cc(Br)cc(S(=O)(=O)NCCN3CCCCC3C)c21 (centres undefined) > 76.9 µM, O=C(NCCC1=CCCCC1)C1CCN(Cc2cnn(-c3ccccc3)c2-n2cccc2)CC1 > 15.4 µM, COC(=O)COc1cccc(NC(=O)c2cccs2)c1 > 76.9 µM, COc1ccc(-c2ccc(SCC(=O)Nc3cc(C)on3)nn2)cc1OC > 76.9 µM, Cc1ccccc1Cn1cc(S(=O)(=O)CC(=O)N2CCCCC2)c2ccccc21 > 76.9 µM, CCOC(=O)Cn1nnnc1CN(Cc1ccc(OC)cc1)Cc1cc2cc(C)cc(C)c2[nH]c1=O > 76.9 µM, O=C(CN1CCN(c2ccccc2F)CC1)Nc1ccccc1F > 76.9 µM, COc1ccc(/C(O)=C2\C(=O)C(=O)N(CCN(C)C)C2c2cc(OC)c(OC)c(OC)c2)c(C)c1 (centres undefined) > 76.9 µM, CCc1cccc(NC(=O)Cn2ncn3c(cc4ccccc43)c2=O)c1 > 76.9 µM, CCOc1ccccc1-c1nc(-c2cc3ccccc3nc2OC)no1 > 76.9 µM, O=C(NC1CCN(C(=O)NCc2ccccc2)CC1)c1ccco1 > 76.9 µM, COc1cc(CNc2ccc3[nH]c(=O)[nH]c3c2)ccc1OCC(=O)NC(C)(C)C > 76.9 µM, Cc1cccc(C(=O)c2ccccc2C(=O)O)c1O > 76.9 µM, CCOC(=O)c1csc(NC(=O)CSc2nnnn2-c2ccc(OC)cc2)n1 > 76.9 µM, O=S1(=O)CC(N2CCCCC2)C(N2CCCCC2)C1 (centres undefined) > 76.9 µM, CCOC(=O)CSc1ncnc2c1cnn2-c1ccc(Cl)cc1 > 76.9 µM, Cc1ccccc1NC(=O)CSc1nc2c(c(-c3ccco3)c1C#N)CCCC2 > 76.9 µM, O=C(CSc1nnc(CNC(=O)c2ccccc2F)o1)NCC1CCCO1 (centres undefined) > 76.9 µM, CCOC(=O)c1sc2ncn(C(C)C(=O)OC)c(=O)c2c1C (centres undefined) > 76.9 µM, CCOC(=O)c1cc2c(=O)n3ccccc3nc2n(CCOC)c1=NC(=O)C(C)(C)C > 76.9 µM, O=C(CSc1nc2ccccc2c(=O)n1Cc1ccco1)NCc1ccco1 > 76.9 µM, Cc1nn(Cc2ccc(C(=O)Nc3ccc(C(=O)OC(C)C)cc3)o2)c(C)c1Cl > 76.9 µM, O=C1c2oc3ccccc3c(=O)c2C(c2ccccn2)N1Cc1ccccc1 (centres undefined) > 76.9 µM, Cc1cc(NC(=O)Cc2cccs2)nn1CC(=O)NCc1ccco1 > 76.9 µM, COC(=O)CN(C)C1CC(=O)N(c2ccc(Cl)cc2)C1=O (centres undefined) > 76.9 µM, O=C(Cn1c(=O)[nH]c2ccsc2c1=O)NC1CCCCCC1 > 76.9 µM, C=CCn1c(=N)n(CC(=O)OCC)c2ccccc21 > 76.9 µM, Cc1c(C(=O)Nc2ccccc2)oc2c1C(=O)CC(C)(C)C2 > 76.9 µM, CN1C(=O)OC2(C)CCc3ccccc3C12C (centres undefined) > 76.9 µM, O=C(O)CCCC(=O)Nc1cccc(-c2nc3ccccc3[nH]2)c1 > 76.9 µM, CCN(Cc1ccccc1)C(=O)Cn1cnc2c1c(=O)n(C)c(=O)n2C > 76.9 µM, CCOC(=O)N1CCN(CC(=O)c2ccc3c(c2)CCN3)CC1 > 76.9 µM, COC(=O)c1cc(C(=O)OC)cc(N2C(=O)CC(Sc3nc(C)cc(C)n3)C2=O)c1 (centres undefined) > 76.9 µM, CC(=O)c1cc(OC(=O)c2ccncc2)ccc1OC(=O)c1ccncc1, Cc1ccc(NCc2nnc(SCC(=O)N3CCc4ccccc43)n2C)cc1 > 76.9 µM, Cc1ccc(C(C(=O)NCc2ccc(F)cc2)N(C(=O)c2csnn2)C2CC2)o1 (centres undefined) > 76.9 µM, COc1ccccc1S(=O)(=O)n1cc(Cc2ccccc2)c(N)n1 > 76.9 µM, O=[n+]1c2c(n([O-])c3cc(F)c(N4CCCC4)cc31)CCC2 > 76.9 µM, O=C(CSc1oc(-c2ccco2)nc1S(=O)(=O)c1ccc(Cl)cc1)NCC1CCCO1 (centres undefined) > 76.9 µM, CCCC1=C(C(=O)OCC)C(c2cc(Cl)cc(OC)c2OCC(=O)OCC)NC(=O)N1 (centres undefined) > 76.9 µM, COc1cc(S(=O)(=O)N2CCN(C(=O)c3ccccc3F)CC2)c(OC)cc1NC(C)=O > 76.9 µM, Cc1cc(=O)[nH]c(Nc2ccc(C(=O)OC(C)C)cc2)n1, Cc1ccn2cc(-c3nonc3C)cc2c1 > 76.9 µM, COc1ccc2[nH]c(C)c(CN3CCCCC3)c(=O)c2c1 > 76.9 µM, O=c1[nH]c2cc3c(cc2cc1CN(CC1CCCO1)S(=O)(=O)c1ccc(Cl)cc1)OCCO3 (centres undefined) > 76.9 µM, COc1ccc(-c2c(=O)n(OCc3ccccn3)c3ccccc3[n+]2[O-])cc1OC > 76.9 µM, CCOC(=O)Cn1c(=NC(=O)CSC(C)=O)sc2cc(OC)ccc21 > 76.9 µM, CC1(C)CC(=O)C(C=Nc2ccc(O)cc2)=C(O)C1 > 76.9 µM, CC(C)NC(=O)CCNS(=O)(=O)c1ccc(Br)cc1 > 76.9 µM, Cc1cc(-c2ccccc2)nc2[n+]1CCN2C > 76.9 µM, c1ccc(-c2nc(-n3ccnc3)nc(-n3ccnc3)n2)cc1 > 76.9 µM, Cc1ccc(-c2nnn(CC(=O)N(CC(=O)NC3CCCC3)c3cnc4ccccc4c3)n2)o1 > 76.9 µM, CCC(C)(C(=O)NC1CCCCC1)N(Cc1ccco1)C(=O)CC1NC(=O)NC1=O (centres undefined) > 76.9 µM, O=C(OCC(=O)N1CCN(C(=O)c2ccco2)CC1)c1ccccc1OCc1ccccc1 > 76.9 µM, Cc1cc(NC(=O)CSc2nc(-c3cccs3)cc(C(F)(F)F)n2)no1 > 76.9 µM, CCC(C)(C(=O)NC1CCCC1)N(Cc1ccco1)C(=O)c1ccccn1 (centres undefined) > 76.9 µM, CCOc1ccc(NC(=O)C2CC(=O)NC(N3CCc4ccccc43)=N2)cc1 (centres undefined) > 76.9 µM, O=C(c1ccco1)N1CCN(S(=O)(=O)c2ccc(F)cc2)CC1 > 76.9 µM, CC(CCc1ccccc1)NC(=O)c1ccc(Br)o1 (centres undefined) > 76.9 µM, C=CCn1c(NC(=O)c2ccccc2Cl)c(C#N)c2nc3ccccc3nc21 > 76.9 µM, O=C(C1CCCCC1)N(CCN1CCCC1)c1nc2ccccc2s1 > 76.9 µM, COCCn1c(SCC(=O)N2CCCCC2)nc2cccnc21 > 76.9 µM, Cc1nnc2n1NC(c1ccc(Cl)cc1)C(C(=O)N(C)C1CCCCC1)S2 (centres undefined) > 76.9 µM, Cc1cccc(-c2nnc(SCc3nc4ccccc4[nH]3)n2Cc2ccco2)c1 > 76.9 µM, Cc1ccc2c(c1)CC1(CN2C)C(=O)OC2(CCCCC2)OC1=O > 76.9 µM, O=C1OCc2cc(NS(=O)(=O)c3cccs3)ccc21 > 76.9 µM, CCn1c(=O)cc(N2CCCCC2)[nH]c1=O > 76.9 µM, CCCC(=O)Nc1nnc(CC(=O)OCC)s1 > 76.9 µM, CS(=O)(=O)Nc1ccccc1C(=O)Nc1ccc2c(c1)OCCO2 > 76.9 µM, O=C(Nc1cccc(-c2nnc(-c3ccccc3)o2)c1)C1CCCO1 (centres undefined) > 76.9 µM, CC1Cn2c(nnc2-c2cccs2)S1 (centres undefined) > 76.9 µM, COC(=O)C(CCSC)NC(=O)CNC(=O)C1CCCCC1 (centres undefined) > 76.9 µM, CCn1c(CCC(=O)Nc2nc3c(s2)CCCC3)nc2cc(S(=O)(=O)N(C)C)ccc21 > 76.9 µM, Cc1cc(NC(=O)CSc2nnc(-c3ccc(Cl)s3)o2)no1 > 76.9 µM, COc1ccc(CCC(=O)N2CCN(C3CCCCC3)CC2)cc1 > 76.9 µM, COc1ccc(C2NCCc3cc(OC)c(OC)cc32)cc1OC (centres undefined) > 76.9 µM, Nc1nc(Cn2nnc(-c3ccccc3F)n2)nc(N2CCOCC2)n1 > 76.9 µM, COc1ccc(N2CCCn3c2nc2c3c(=O)n(CCCc3ccccc3)c(=O)n2C)cc1 > 76.9 µM, CCn1c(SCC(=O)NC2CCCCC2)nnc1-c1cccs1 > 76.9 µM, O=C(Nc1ccccc1C(=O)N1CCCC1)c1cccc(S(=O)(=O)N2CCCCC2)c1 > 76.9 µM, O=C(CSc1c2c(nc3ccc(Cl)cc13)CCCC2)N1CCN(C(=O)c2ccco2)CC1 > 76.9 µM, C#CCN(C#N)c1nc(NCC)nc(NC(C)C)n1 > 76.9 µM, CCN(CC)C(=O)c1cccc(-c2ccc(OC)cc2)c1 > 76.9 µM
